# Laboratory results reported in PubChem BioAssay AID504339 (National Center for Advancing Translational Sciences (NCATS), 2011).
# About 17,000 (4.4%) of roughly 390,000 compounds were called active. Inconclusive means that the source gave no clear call. Such entries were picked first, then a sample of the others. Calls come from the whole dose curve; as a rule, active = well fitted inhibition curve with a large enough effect; inconclusive = small, poorly fitted or top-dose-only effect; inactive = no such curve, though single readings can be large or run the other way. Potencies beside an inconclusive call are fits to weak or partial responses and may not hold up.
# Biological target: Lysine-specific demethylase 4A (Homo sapiens) (UniProt O75164)
# Assay: qHTS Assay for Inhibitors of JMJD2A-Tudor Domain; note: nearly all actives have a fitted effect of over 50% in size
# Settings: AlphaScreen JMJD2A-Tudor / H3K4me3 peptide binding; series mostly up to 114 µM
# Potency is the fitted concentration of half-maximal effect; tags give direction and shape of the fitted curve.
# Chain of UniProt O75164 (O75164 whole entry, looked up, the tested form may be a part): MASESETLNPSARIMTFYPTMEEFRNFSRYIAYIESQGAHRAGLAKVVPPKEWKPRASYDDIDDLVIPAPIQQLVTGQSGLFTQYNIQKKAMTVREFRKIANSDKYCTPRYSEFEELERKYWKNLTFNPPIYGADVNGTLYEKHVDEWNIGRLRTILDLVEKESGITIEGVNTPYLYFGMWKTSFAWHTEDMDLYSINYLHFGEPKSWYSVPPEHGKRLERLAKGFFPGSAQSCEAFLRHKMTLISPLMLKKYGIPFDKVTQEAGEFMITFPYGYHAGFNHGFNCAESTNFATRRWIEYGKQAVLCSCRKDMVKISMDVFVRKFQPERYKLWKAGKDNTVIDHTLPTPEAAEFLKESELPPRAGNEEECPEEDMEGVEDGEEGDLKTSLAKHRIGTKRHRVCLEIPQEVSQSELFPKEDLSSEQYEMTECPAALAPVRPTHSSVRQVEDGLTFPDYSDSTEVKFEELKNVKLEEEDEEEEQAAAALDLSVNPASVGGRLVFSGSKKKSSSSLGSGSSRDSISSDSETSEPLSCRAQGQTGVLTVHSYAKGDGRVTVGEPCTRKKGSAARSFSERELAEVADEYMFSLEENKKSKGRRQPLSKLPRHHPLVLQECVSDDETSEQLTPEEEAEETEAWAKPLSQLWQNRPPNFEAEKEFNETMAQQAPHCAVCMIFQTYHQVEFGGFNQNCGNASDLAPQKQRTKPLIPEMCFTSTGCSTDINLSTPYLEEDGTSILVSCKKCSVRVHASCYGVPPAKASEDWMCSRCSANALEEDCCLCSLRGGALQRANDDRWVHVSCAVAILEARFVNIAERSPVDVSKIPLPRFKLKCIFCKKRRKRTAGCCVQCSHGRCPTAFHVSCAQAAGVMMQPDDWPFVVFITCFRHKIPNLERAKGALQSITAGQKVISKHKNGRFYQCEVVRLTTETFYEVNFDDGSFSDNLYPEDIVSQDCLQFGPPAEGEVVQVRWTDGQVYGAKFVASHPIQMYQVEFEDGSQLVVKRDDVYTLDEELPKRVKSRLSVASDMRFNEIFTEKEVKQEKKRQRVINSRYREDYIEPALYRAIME
row,Compound,Potency
1,COc1cccc(N2CC(C(=O)Nc3nnc(SCC(=O)NCc4ccco4)s3)CC2=O)c1 (stereo not drawn),"inconclusive: 50.1 µM [inhibitor, partial curve, poor fit]"
2,COc1ccc(NC(=O)C2CCCN(CCCc3ccccc3)C2)cc1OCC(C)C (stereo not drawn),"inconclusive: 35.5 µM [inhibitor, full curve, poor fit]"
3,N#CC1=C(N)N(c2ccccc2)C(c2ccco2)C1(C#N)C#N (stereo not drawn),"inconclusive: 70.8 µM [inhibitor, partial curve]"
4,Cc1cccc(OCCSc2nc3ccccc3n2CC(=O)N2CCCCC2)c1C,"inconclusive: 44.7 µM [inhibitor, partial curve]"
5,COc1cc(C2Nc3ccccc3C(=O)N2Cc2ccccc2)ccc1OCc1ccc(NC(C)=O)cc1 (stereo not drawn),inactive
6,Cn1c(N)c(C(=O)COC(=O)Cc2ccc(Cl)c(Cl)c2)c(=O)n(C)c1=O,active: 89.1 µM
7,CCCC(=O)Nc1nnc(SCC(=O)N2CCCCC2)s1,active: 70.8 µM
8,COCC(=O)N(Cc1cc2cc(C)ccc2[nH]c1=O)c1ccccc1,inactive
9,CNC(=S)N/N=C1\C(=O)c2cccc3cccc1c23,"inconclusive: 44.7 µM [inhibitor, partial curve]"
10,N#Cc1nc(COc2ccccc2Cl)oc1N1CCCC1,"inconclusive: 44.7 µM [inhibitor, partial curve]"
11,Cc1ccc(C(=O)CSC2=C(C#N)C(c3ccco3)C3=C(CC(C)(C)CC3=O)N2)cc1 (stereo not drawn),"inconclusive: 39.8 µM [inhibitor, partial curve]"
12,CC1=CSC2=NC(=O)/C(=C\c3cccn3-c3ccccc3)C(=N)N12,"inconclusive: 35.5 µM [inhibitor, partial curve]"
13,CN1CC(c2ccc(Cl)c(Cl)c2)[C@@]2(COc3ccccc3C2=O)[C@@]12C(=O)Nc1ccccc12 (stereo partly drawn),"inconclusive: 44.7 µM [inhibitor, partial curve]"
14,COc1ccc(-c2cn3c(n2)sc2cc(C(=O)NC4CCCc5ccccc54)ccc23)cc1 (stereo not drawn),inactive
15,O=C(O)c1cccc(NN=C2c3ccccc3-c3ccccc32)c1,"inconclusive: 44.7 µM [inhibitor, partial curve]"
16,CCc1nnc(NC(=O)c2cc(-c3ccc(C)o3)nc3ccccc23)s1,active: 89.1 µM
17,COc1ccc(/C=N/NC(=O)c2ccccc2OC)cc1COc1ccccc1[N+](=O)[O-],"inconclusive: 35.5 µM [inhibitor, partial curve]"
18,O=C(CCNC(=O)c1ccc(Br)cc1)Nc1cccc(S(=O)(=O)N2CCCCCC2)c1,inactive
19,O=C(Nc1cccc(NC(=O)c2ccc3c(c2)OCO3)c1)c1ccccc1,inactive
20,Cc1ccc(-c2nnc(SCC(=O)O)n2N)cc1,inactive
21,O=C(/C=C/c1cccc(Br)c1)Nc1nn[nH]n1,"inconclusive: 25.1 µM [inhibitor, single point]"
22,Clc1ccc2c(c1)C(N1CCNCC1)Cc1ccccc1S2 (stereo not drawn),"inconclusive: 56.2 µM [inhibitor, partial curve]"
23,Cc1cc(C(=O)N2CCCC(N3CCN(c4ccc(F)cc4)CC3)C2)c(C)o1 (stereo not drawn),"inconclusive: 28.2 µM [inhibitor, full curve]"
24,COc1ccc(NC(=O)NS(=O)(=O)c2ccc(C)cc2)c(OC)c1,"inconclusive: 79.4 µM [inhibitor, partial curve]"
25,CCn1c(SCC(=O)c2ccc(Cl)cc2)nnc1-c1ccoc1C,active: 50.1 µM

row,Compound,Potency
1,Cc1occc(=O)c1OC(=O)Nc1ccc(Cl)c(Cl)c1,active: 25.1 µM
2,Cc1cc(NC(=O)CN(C)CCOc2ccccc2)ccc1Br,active: 0.794 µM
3,Cn1c(=O)cc(OCC(=O)N2CCN(c3ccccc3)CC2)c2ccccc21,inactive
4,COc1ccc(C)cc1NCc1nnc2n1CCCCC2,inactive
5,CCCCCCCCOC(=O)c1cc([N+](=O)[O-])c(Sc2ncnc3nc[nH]c23)c([N+](=O)[O-])c1,"inconclusive: 22.4 µM [inhibitor, full curve]"
6,Cc1ccc(NC(=O)CSc2nc3ccccc3c3nc(CCn4cncc4C)nn23)cc1F,"inconclusive: 50.1 µM [inhibitor, partial curve]"
7,Cc1ccc(NC(=O)CCn2c(=O)oc3ccccc32)cc1,"inconclusive: 89.1 µM [inhibitor, single point]"
8,CCc1ccccc1NC(=O)c1ccc(F)c(S(=O)(=O)NC2CCCCCC2)c1,inactive
9,CCCS(=O)(=O)c1ncc(Cl)c(C(=O)N2CCN(c3ccc(OC)cc3)CC2)n1,inactive
10,CC1CCN(c2ccc(NC(=O)c3cccc(Cl)c3)cc2C(=O)O)CC1,"inconclusive: 89.1 µM [inhibitor, single point]"
11,CCOc1cccc(N(C(=O)CNC(=O)c2ccco2)C(C(=O)NCC2CCCO2)c2ccccc2)c1 (stereo not drawn),inactive
12,Cn1cccc1/C=C1\SC(=S)N(Nc2ccccc2)C1=O,"inconclusive: 14.1 µM [inhibitor, partial curve]"
13,COc1ccc(C(N)CCc2ccc(C)o2)cc1 (stereo not drawn),"inconclusive: 79.4 µM [inhibitor, single point]"
14,NC[C@@H](O)c1ccc(O)c(O)c1,active: 89.1 µM
15,COc1ccc(/C=C2\N=C(C)OC2=O)cc1OC,inactive
16,O=S(=O)(Cc1noc(-c2ccc(Cl)cc2)n1)Cc1ccco1,inactive
17,O=C(NC(=S)NNS(=O)(=O)c1ccccc1)c1cccnc1,inactive
18,O=C1CC(N2CCN(c3ccccn3)CC2)C(=O)N1c1ccc(Cl)cc1 (stereo not drawn),inactive
19,CCOC(=O)C(=O)C1=C(N2CCOCC2)/C(=C\c2ccc(F)cc2)CC1,"inconclusive: 35.5 µM [inhibitor, single point]"
20,CCOC(=O)C1CCCN(CCc2ccccc2)C1 (stereo not drawn),active: 25.1 µM
21,C=CCn1c(CCc2cc(C(C)(C)C)c(O)c(C(C)(C)C)c2)n[nH]c1=S,"inconclusive: 56.2 µM [inhibitor, partial curve]"
22,CCCOc1ccc(Cl)cc1CN1CCOCC1,"inconclusive: 89.1 µM [inhibitor, single point]"
23,COc1ccc2ccccc2c1CN(C)Cc1ccccc1,active: 28.2 µM
24,COc1cccc(C#Cc2c(CO)[nH]c3ccccc23)c1,"inconclusive: 70.8 µM [inhibitor, single point]"
25,O=C(COC(=O)c1ccc(Br)o1)Nc1ncc([N+](=O)[O-])s1,"inconclusive: 89.1 µM [inhibitor, partial curve]"

row,Compound,Potency
1,O=C(O)c1cccc(S(=O)(=O)Nc2cccc3ccccc23)c1,inactive
2,CCOc1cccc(/C(O)=C2/C(=O)C(=O)N(Cc3cccnc3)C2c2ccco2)c1 (stereo not drawn),"inconclusive: 31.6 µM [inhibitor, full curve]"
3,COc1ccc(CNC(=S)Nc2ccc3nc(N4CCN(C)CC4)cc(C)c3c2)cc1,"inconclusive: 50.1 µM [inhibitor, partial curve]"
4,CC1CCCC/C1=N\Nc1ccc(S(N)(=O)=O)cc1[N+](=O)[O-] (stereo not drawn),"inconclusive: 39.8 µM [inhibitor, partial curve]"
5,Cn1c(=O)c2[nH]c(CCC3CCCC3)nc2n(C)c1=O,inactive
6,CCN(CC)c1ccc(N=Cc2cc(Br)ccc2O)cc1,active: 39.8 µM
7,COc1ccccc1NC(=O)N(Cc1ccco1)Cc1cc2cc(C)cc(C)c2[nH]c1=O,"inconclusive: 56.2 µM [inhibitor, partial curve]"
8,COc1cccc(C2c3c(ncn(-c4ccc(NC(C)=O)cc4)c3=N)Oc3ccc4ccccc4c32)c1 (stereo not drawn),"inconclusive: 44.7 µM [inhibitor, partial curve]"
9,CCOC(=O)c1c(C)c(/C=N/Nc2ccccc2)n(C)c1C,"inconclusive: 56.2 µM [inhibitor, partial curve]"
10,COc1cc(NC(=O)c2c(-c3ccc(C)cc3)nnc3ccccc23)cc(OC)c1OC,inactive
11,COc1ccccc1NS(=O)(=O)c1cc(N2Cc3ccccc3C2=N)ccc1N1CCOCC1,"inconclusive: 79.4 µM [inhibitor, partial curve, poor fit]"
12,Cc1cc(OCCn2cnc3ccccc3c2=O)cc(C(C)C)c1,active: 79.4 µM
13,O=[N+]([O-])c1ccc(S(=O)(=O)N2CCN(Cc3ccco3)CC2)cc1,active: 8.91 µM
14,COc1ccc(OCCn2c(C)nc3cc(C)c(C)cc32)cc1,"inconclusive: 63.1 µM [inhibitor, partial curve, poor fit]"
15,O=C1C(Cl)=C(Nc2cccc(O)c2)C(=O)N1Cc1ccccc1,active: 44.7 µM
16,CCN(CC)S(=O)(=O)c1ccc(N/N=C(\C)c2ccc3c(c2)OCO3)c([N+](=O)[O-])c1,inactive
17,COc1cc2[nH]c3c(N4CCN(c5ccc(Cl)cc5)CC4)ncnc3c2cc1OC,inactive
18,O=C(CN1C(=O)C2CC=CCC2C1=O)Nc1nc2ccccc2[nH]1 (stereo not drawn),"inconclusive: 11.2 µM [inhibitor, partial curve]"
19,COc1ccccc1C(=O)NCC(=O)N1CCN(S(=O)(=O)c2ccc3c(c2)OCCO3)CC1,inactive
20,O=C(O)c1cn(-c2ccc(N3CCCC3)c(F)c2)c2c(F)c(F)c(F)cc2c1=O,"inconclusive: 56.2 µM [inhibitor, partial curve]"
21,COC(=O)c1sc(N2C(=O)C(O)=C(C(=O)c3ccc(C)o3)C2c2cccs2)nc1C (stereo not drawn),"inconclusive: 56.2 µM [inhibitor, partial curve]"
22,O=C1/C(=C/c2ccccc2F)SC(=S)N1CCC(=O)N1CCCCC1CCO (stereo not drawn),"inconclusive: 39.8 µM [inhibitor, partial curve]"
23,CC[C@H](C)[C@H]1CNC(=O)C(=O)N1CC1CCN(CCCc2ccc(OC)c(OC)c2)CC1,active: 79.4 µM
